Data as given in PubChem BioAssay AID540267 (National Center for Advancing Translational Sciences (NCATS), 2011).
Screen size: about 340,000 compounds; about 530 (0.16%) were called active. The inconclusive results got no clear call from the source; some entries with a clear call stand among them for comparison. Cut-off read from the data, not from the text of the source: active = activity change below about -80%; inconclusive = between about -30% and that limit; inactive = weaker than that.
% is set by controls: 0 for no effect and ±100 for the full control effect.

Test: Small Molecules that selectively kill Giardia lamblia: qHTS;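 note: parasites exposed to compound for two days anaerobically before the ATP read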
Conditions: Giardia lamblia trophozoite viability; at 7.66 µM; active compounds read low
In short: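 Each well holds 100 Giardia trophozoites and compound. After two days (48 hrs) at 37 deg C in anaerobic conditions, ATP is quantified by luminescence.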
In the case of `COc1c(O)cccc1/C=N/NC(=O)Cn1ccnc1C`, the activity change is reported as inconclusive: -37.6% [inhibitor]. In the case of `O=C(Nc1cccc(F)c1)N1CCC(c2ccccc2)CC1`, the activity change is reported as inconclusive: -42.6% [inhibitor]. In the case of `COc1ccc(-c2csc3nc(-c4cccnc4)nc(N4CCC(C(N)=O)CC4)c23)cc1OC`, the activity change is reported as inconclusive: -32.3% [inhibitor]. In the case of `O=C1c2ccccc2C(Nc2ccc(F)c(Cl)c2)N1c1ccccn1` (stereo unspecified), the activity change is reported as inactive: -7.45%. For `CC1Cc2nc(SCC(=O)Nc3ccc4c(c3)OCO4)n(CCc3ccccc3)c(=O)c2S1` (stereo unspecified), the activity change was inconclusive: -33.2% [inhibitor]. In the case of `O=c1oc2c(O)cccc2cc1-c1nc2ccccc2[nH]1`, the activity change is reported as inconclusive: -63.1% [inhibitor]. With `Cn1c([N+](=O)[O-])cnc1N1CCN(c2nncs2)C1=O` the activity change was active: -92.9%. With `CSc1ccc(CCNC(=O)CCc2nnc3ccc(N4CCOCC4)nn23)cc1` the activity change was inactive: 15.3%. For `O=C1c2ccccc2-c2nnc(-c3ccc(F)cc3)cc21`, the activity change was inconclusive: -33.3% [inhibitor]. For `Cn1c(SCC#N)nnc1-c1cnccn1`, the activity change was inconclusive: -34.6% [inhibitor]. With `CN(C)c1cccc(C(=O)NNC(=O)CN2C(=O)C3CC=CCC3C2=O)c1` (stereo unspecified) the activity change was inconclusive: -34% [inhibitor]. In the case of `CN(C)c1ccc(N=Nc2ccccc2C(=O)OCC(=O)N2CCCC2)cc1`, the activity change is reported as inconclusive: -74.8% [inhibitor]. In the case of `Cc1nc(-c2cccnc2)sc1C(=O)N/N=C/c1ccccc1Cl`, the activity change is reported as inconclusive: -33.2% [inhibitor]. With `CC(=O)c1cccc(NC(=O)c2ccco2)c1` the activity change was inconclusive: -42.8% [inhibitor]. For `O=C1C(c2cc(=O)c3ccccc3[nH]2)=C(O)c2ccccc21`, the activity change was inconclusive: -40.1% [inhibitor]. In the case of `O=c1oc2ccccc2c(NC2CCCCC2)c1NS(=O)(=O)c1ccc(Br)cc1`, the activity change is reported as inactive: 25.6%. In the case of `C#CCOCCOCCOCCNc1nc(N2CCN(C(=O)C([C@@H](C)O)n3cc([C@@H](N)CCCCN)nn3)CC2)nc(N2CCN(C(=O)[C@H](CC(N)=O)n3cc(C(N)[C@@H](C)CC)nn3)CC2)n1` (stereo partly specified), the activity change is reported as inactive: 20.5%. With `O=C(Nc1ccon1)c1cc(-c2ccccc2)nc2ccccc12` the activity change was inconclusive: -31.5% [inhibitor]. For `CCCCC(=O)NNC(=S)NC(=O)c1ccc([N+](=O)[O-])cc1`, the activity change was inconclusive: -38.9% [inhibitor]. With `Cc1ccc(CNC(=O)C2CCN(S(=O)(=O)N3CCOCC3)CC2)cc1` the activity change was inactive: -7.92%. For `Cc1cc(/C=c2/sc3nc4ccccc4n3c2=O)c(C)n1-c1ccccn1`, the activity change was inconclusive: -35.7% [inhibitor]. For `COc1ccccc1CNC(=O)C(NC(=O)Nc1ccccc1)C(C)C` (stereo unspecified), the activity change was inconclusive: -32.9% [inhibitor]. In the case of `CC1CCCN(CCCNC(=O)c2coc3nc4ccccc4nc23)C1` (stereo unspecified), the activity change is reported as inconclusive: -35.4% [inhibitor]. With `COc1cc(-c2nnc(-c3cc(OC)c(OC)c(OC)c3)o2)cc(OC)c1OC` the activity change was inactive: 11.7%. In the case of `Cc1ccc2oc(-c3cccc(NC(=O)Cc4cccs4)c3)nc2c1`, the activity change is reported as inactive: -14.7%. For `Cc1ccc(Cn2c(=O)c3c(nc4n3CCN4Cc3ccco3)n(C)c2=O)cc1`, the activity change was inconclusive: -32.6% [inhibitor]. With `Cc1cccc(C2=NN(c3ccc(Br)cc3)[C@@H](C(=O)N3CCOC3=O)[C@@H]2c2ccc([N+](=O)[O-])cc2)c1` the activity change was inconclusive: -30.8% [inhibitor]. For `COC(=O)Cc1ccc(NC(=S)N2CCCC(CO)C2)cc1` (stereo unspecified), the activity change was inconclusive: -47.6% [inhibitor]. In the case of `CCN1C(=NCc2cc(OC)c(OC)c(OC)c2)N[C@@H](c2ccccc2)C(C(=O)OC)=C1C`, the activity change is reported as inactive: 13%. In the case of `CC(C)(C)C(=O)Cn1c(=O)n(-c2ccc(F)cc2F)c(=O)c2sccc21`, the activity change is reported as inconclusive: -41.1% [inhibitor]. With `CCCCNc1c(-c2ccc(OC)c(SC3CCCCC3)c2)nc2cc(C)ccn12` the activity change was inactive: 7.64%. In the case of `COC(=O)c1ccccc1NC(=O)N1CCN(Cc2ccco2)CC1`, the activity change is reported as inconclusive: -31.9% [inhibitor]. In the case of `CC(C)C(=O)OCc1cn(-c2ccc(Cl)c(Cl)c2)nn1`, the activity change is reported as inactive: -5.46%. For `CCC(C)[C@H](NS(=O)(=O)c1ccc(C)cc1)C(=O)N1CCC(C(=O)N[C@@H](Cc2ccccc2)C(=O)O)CC1` (stereo partly specified), the activity change was inconclusive: -35% [inhibitor]. With `Cc1cc(C(=O)COC(=O)c2ccccc2NCCO)c(C)n1CC1CCCO1` (stereo unspecified) the activity change was inconclusive: -32.4% [inhibitor]. With `NNC(=O)c1oc2nc(-c3ccc(Cl)cc3)cc(-c3ccccc3)c2c1N` the activity change was inconclusive: -32.6% [inhibitor]. For `Cc1csc(NC(=O)c2ccc(S(=O)(=O)N3CCCC3)cc2)n1`, the activity change was inactive: -15.9%. With `CCOC(=O)CNC(=O)CNC(=O)c1nn(-c2ccc(OC)c(OC)c2)c(=O)c2ccccc12` the activity change was inconclusive: -39% [inhibitor]. For `Cc1c(C)n(Cc2ccc(Cl)cc2)c2ccc(C(=O)NCCN3CCOCC3)cc12`, the activity change was inactive: -13.3%. For `Cc1ccc([N+](=O)[O-])cc1NC(=O)CNC1CCCCC1`, the activity change was inactive: 14.4%. In the case of `COc1ccc(-c2ccc(C(=O)O)o2)c([N+](=O)[O-])c1`, the activity change is reported as inconclusive: -30.2% [inhibitor]. For `O=C(Cc1ccc(NC(=O)C2CCN(C(=O)C3CC3)CC2)cc1)Nc1ccc(C(=O)N2CCOCC2)cc1`, the activity change was inconclusive: -37.8% [inhibitor]. In the case of `COC(=O)[C@H](Cc1ccccc1)NC(=O)Cn1cnc(C(=O)Nc2ccc(C)c(C)c2)n1`, the activity change is reported as inconclusive: -34% [inhibitor]. In the case of `CCOc1cc([N+](=O)[O-])cc(/C=C2/NC(=O)N(Cc3ccccc3F)C2=O)c1O`, the activity change is reported as inconclusive: -73.7% [inhibitor]. For `COC(CNC(=O)c1cc(-c2ccncc2)nc2ccc(S(=O)(=O)N3CCOCC3)cc12)OC`, the activity change was inconclusive: -34.9% [inhibitor]. For `COc1cccc(NC(=O)C(=S)NC2CCCCC2)c1`, the activity change was inactive: 3.32%. With `Cc1ccccc1C(=O)Nc1nnc(-c2ccncc2)o1` the activity change was inconclusive: -37.5% [inhibitor]. In the case of `CC(=O)C12OC1CC1C3CCC4=CC(=O)CCC4(C)C3CCC12C` (stereo unspecified), the activity change is reported as inactive: 13.2%. In the case of `CC(C)Cc1nn2c(=O)cc(COc3ccc(NC(=O)c4ccco4)cc3)nc2s1`, the activity change is reported as inconclusive: -30.4% [inhibitor]. With `CCOc1ccc2nc(N/C(N)=N/C(=S)Nc3ccc(C)c(C)c3)nc(C)c2c1` the activity change was inactive: 28.2%. In the case of `Cc1cccc(C(=O)Nc2nnc(C3=COCCO3)o2)c1`, the activity change is reported as inactive: 11.5%. With `Clc1ccc(-c2nc(-c3ccccn3)no2)cc1Cl` the activity change was inconclusive: -35.8% [inhibitor]. With `Cc1nn(CCc2n[nH]c(=S)n2C2CCCCC2)c(C)c1Br` the activity change was inactive: 11.1%. For `COc1ccc(C2=NN(C(=O)c3ccccc3)C(c3ccccc3)C2)c(O)c1` (stereo unspecified), the activity change was inactive: 1.62%. With `O=C(CSc1nc2ccccc2c(=O)[nH]1)NCc1ccc(Cl)cc1` the activity change was inconclusive: -33.1% [inhibitor]. In the case of `O=C1Nc2cc(Cl)ccc2C1(N1CCNCC1)C(F)(F)F` (stereo unspecified), the activity change is reported as inactive: -24.6%. In the case of `CN=c1scc(-c2ccc(Cl)cc2)n1C`, the activity change is reported as inconclusive: -31.8% [inhibitor]. For `CCCCn1c(SCC(=O)Nc2cc(NC(=O)c3ccco3)ccc2C)nc2ccccc2c1=O`, the activity change was inactive: -9.4%. With `COc1ccc(Cn2cnc3sccc3c2=O)cc1` the activity change was inconclusive: -31.2% [inhibitor]. With `C=CCNC(=S)NC(=O)c1csc([N+](=O)[O-])c1` the activity change was inconclusive: -60.9% [inhibitor]. In the case of `Cc1cccc2c(C(=O)N3CCCCC3)cc(-c3ccccc3)nc12`, the activity change is reported as inactive: -2.4%. In the case of `Cc1cc(=O)n2nc(N3CCCC3C(=O)Nc3cccc(F)c3)sc2n1` (stereo unspecified), the activity change is reported as inactive: 11.8%. For `CN(C)CCCN(C(=O)c1cc2cc([N+](=O)[O-])ccc2s1)c1nc2cc3c(cc2s1)OCCO3`, the activity change was inconclusive: -63.5% [inhibitor]. For `CC1C(=O)C(C)C(c2cccs2)NC1c1cccs1` (stereo unspecified), the activity change was inactive: -5.28%. With `CCCCN1C(=N)N([C@@H](C)CN2CCC[C@H]2CN2C(N)=NC[C@H]2CC(C)C)C[C@H]1[C@H](C)CC` the activity change was inconclusive: -44.5% [inhibitor]. For `O=C(Cc1ncc(C(F)(F)F)cc1Cl)NCc1ccco1`, the activity change was inconclusive: -36.2% [inhibitor]. With `CCC(C)Sc1cccc(-c2nc3cc(C)ccn3c2NC2CCCCC2)c1` (stereo unspecified) the activity change was inactive: 0.52%. For `CN1C(=O)Cc2cc(S(=O)(=O)NCCc3ccc(Cl)cc3)ccc21`, the activity change was inconclusive: -36.2% [inhibitor]. With `Cc1ccc2oc(=O)c3cc(C(=O)NCCCN4CCc5ccccc5C4)sc3c2c1` the activity change was inconclusive: -34.2% [inhibitor]. For `CCN(C(=O)COC(=O)Cn1c(C)csc1=O)c1c(N)n(Cc2ccccc2)c(=O)[nH]c1=O`, the activity change was inactive: -28.9%. With `CC(NC(=O)C1CCCN(S(=O)(=O)c2cnc[nH]2)C1)c1ccccc1` (stereo unspecified) the activity change was inconclusive: -44.7% [inhibitor]. In the case of `Cc1ccc2[nH]c(C)c(/C=C/c3cc[n+](C)cc3)c2c1`, the activity change is reported as inconclusive: -35.8% [inhibitor]. In the case of `Cc1cc(Nc2ccccc2)c2c([N+](=O)[O-])ccc(C)c2n1`, the activity change is reported as inconclusive: -75.5% [inhibitor]. In the case of `Cc1cc2oc(C(=O)Nc3nonc3C)c(C)c2cc1C`, the activity change is reported as inconclusive: -36% [inhibitor]. In the case of `O=C(Cc1cccs1)N/N=C/C=C/c1ccccc1[N+](=O)[O-]`, the activity change is reported as inactive: 0.217%. With `COc1ccc(CCC(=O)OCc2csc(CC(=O)Nc3ccccc3C)n2)cc1` the activity change was inactive: -9.69%.
